These results are taken from the RNAGym collection of RNA variant scans (doi:10.1073/pnas.2313332121).

B1: TPR 5TU (parent)
chain: GGAUCUUCUCGAUCUAACAAAAAAGACAAAUCUGCCACAAAGCUUGAGAGCAUCUUCGGAUGCAGAGGCGGCAGCCUUCGGUGGCGCGAUAGCGCCAACGUUCUCAACUAUGACACGCAAAACGCGUGCUCCGUUGAAUGGAGUUUAUCAUG

Variants at the floor of the assay are shown more often than the library holds them. Bounds are passed on as bounds.

Variants of B1 are the subject of this data set. Kind of data set: polymerase ribozyme fitness, log enrichment relative to wild type (log ratio); higher = more active; in vitro selection for triplet polymerase activity. In outline: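 Fitness compares each genotype's enrichment to that of the wild type on a logarithmic scale, averaging replicates with inverse-variance weights. The logarithm is base 2. Enrichment came from Illumina sequencing of input and output libraries after one triplicate round of in vitro selection, which included frozen incubation at −7 °C, of PCR-built, transcribed mutant libraries of each subunit of a heterodimeric triplet polymerase ribozyme. Only genotypes with ≥10 input reads and ≥1 read per output were kept.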
For the variant GGAUCUUCUCGAUCUAACAAAAAAGACAAAUCUGCCACAAAGCUUGAGAGCAUCUUCGGAUGCAGAGGCGGCAGCCUUCGGUGGCGCGAUAGAGCCAACGUUCUCAACUAUGACACGCAAAACACGUGCUCCGUUGAAUGGAGUUUAUCAUG [C93A G124A], the “polymerase ribozyme fitness (log ratio)” value was -2.59.
As for GGAUCUUCUCGAUCUAACAAAAAAGACAAAUCUGCCACAAAGCUUGAGAGCAUCUUCGGAUGCAGAGGCGGCAGCCUUCGGUGGCGCGAUAGGGCUAACGUUCUCAACUGUGACACGCAAAACGCGUGCUCCGUUGAAUGGAGUUUAUCAUG [C93G C96U A110G], the figure is at most -4.2; as for GGAUCUUCUCGAUCUAACAAAAAAGACAAAUCUGCCACAAAGCUUGAGAGCAUCUUCGGAUGCAGAGGCGGCAGCCUUCGGUGGCGCGAUAGGGCCAACGUUCUCAACUAUGAUACGCAAAACGCGUGCUCCGUUGAAUGGAGUUUAUCAUG [C93G C114U], -3.97; as for GGAUCUUCUCGAUCUAACAAAAAAGACAAAUCUGCCACAAAGCUUGAGAGCAUCUUCGGAUGCAGAGGCGGCAGCCUUCGGUGGCGCGAUAGAGCCAACGUUCUCAACUAUGACACGCAAAACGCGUGCUCCGUUGAAAUGAGUUUAUCAUG [C93A U139A G140U], at most -4.2.
GGAUCUUCUCGAUCUAACAAAAAAGACAAAUCUGCCACAAAGCUUGAGAGCAUCUUCGGAUGCAGAGGCGGCAGCCUUCGGUGGCGCGAUAGAGCCAACGGUCUCAACUAUGACACGCAAAACGCGUGCUCCGUUGAAUGGAGUUUAUCAUG [C93A U101G]: the “polymerase ribozyme fitness (log ratio)” value was -3.29.
In the case of GGAUCUUCUCGAUCUAACAAAAAAGACAAAUCUGCCACAAAGCUUGAGAGCAUCUUCGGAUGCAGAGGCGGCAGCCUUCGGUGGCGCGAUAGGGCCAACGUUCUCAACUAUGACACGCAAAUCGCGUGCUCCGUUGAAUGGAGUUUAUCAUG [C93G A122U], the “polymerase ribozyme fitness (log ratio)” value is -2.98.
In the case of GGAUCUUCUCGAUCUAACAAAAAAGACAAAUCUGCCACAAAGCUUGAGAGCAUCUUCGGAUGCAGAGGCGGCAGCCUUCGGUGGCGCGAUAGAGCCAACGUUCUCAACUAUGACACGCAAAACGCGUGCUCCGUUAAAUGGAGUUUAUCAUG [C93A G136A], the “polymerase ribozyme fitness (log ratio)” value was -1.14.
Turning to GGAUCUUCUCGAUCUAACAAAAAAGACAAAUCUGCCACAAAGCUUGAGAGCAUCUUCGGAUGCAGAGGCGGCAGCCUUCGGUGGCGCGAUAGGGCCAACGUUGUCAACUAUGACACGCAAAAAGCGUGCUCCGUUGAAUGGAGUUUAUCAUG [C93G C103G C123A], the “polymerase ribozyme fitness (log ratio)” value was at most -4.2.
With GGAUCUUCUCGAUCUAACAAAAAAGACAAAUCUGCCACAAAGCUUGAGAGCAUCUUCGGAUGCAGAGGCGGCAGCCUUCGGUGGCGCGAUAGGGCCAACGUUGUCAACUAUGACACGCAAAACGCGUGCUCCGUUGAAUGGAGUUUAUCAUG [C93G C103G], the “polymerase ribozyme fitness (log ratio)” value was at most -4.2.
On to GGAUCUUCUCGAUCUAACAAAAAAGACAAAUCUGCCACAAAGCUUGAGAGCAUCUUCGGAUGCAGAGGCGGCAGCCUUCGGUGGCGCGAUAGGGCCAACGUUCUCAACUAUGACGCGCAAAACGCGUGCUUCGUUGAAUGGAGUUUAUCAUG [C93G A115G C131U], for which the “polymerase ribozyme fitness (log ratio)” value was -3.48.
For GGAUCUUCUCGAUCUAACAAAAAAGACAAAUCUGCCACAAAGCUUGAGAGCAUCUUCGGAUGCAGAGGCGGCAGCCUUCGGUGGCGCGAUAGGGGCAACGUUCUCAACUAUGACACGCAAAACGCGUGCUCCGUUGAAUGGAGUUUAUCAUG [C93G C95G], the “polymerase ribozyme fitness (log ratio)” value was at most -4.2.
Take GGAUCUUCUCGAUCUAACAAAAAAGACAAAUCUGCCACAAAGCUUGAGAGCAUCUUCGGAUGCAGAGGCGGCAGCCUUCGGUGGCGCGAUAGAGCCAACGUUCCCAACUAUGACACGCAAAACGCGUGCUCCGUUGAGUGGAGUUUAUCAUG [C93A U104C A138G]: the “polymerase ribozyme fitness (log ratio)” value is at most -4.2.
GGAUCUUCUCGAUCUAACAAAAAAGACAAAUCUGCCACAAAGCUUGAGAGCAUCUUCGGAUGCAGAGGCGGCAGCCUUCGGUGGCGCGAUAGGGCCAAUGUUCUCAACUAUGACACGCAAAACGCGUGCUCCGUUGAAUGGAGUUUAUCAUG [C93G C99U]: the “polymerase ribozyme fitness (log ratio)” value is at most -4.2.
Regarding GGAUCUUCUCGAUCUAACAAAAAAGACAAAUCUGCCACAAAGCUUGAGAGCAUCUUCGGAUGCAGAGGCGGCAGCCUUCGGUGGCGCGAUAGGGCCAACGUUCUCAUCUAUGACACGCAAAACGCGUGCUCCGUUGAAUGGAGUUUAUCAUG [C93G A107U], the “polymerase ribozyme fitness (log ratio)” value is -4.14.
As for GGAUCUUCUCGAUCUAACAAAAAAGACAAAUCUGCCACAAAGCUUGAGAGCAUCUUCGGAUGCAGAGGCGGCAGCCUUCGGUGGCGCGAUAGGGCCAACGUUCUCAGCUAUGACACGCAAAACGCGUGCUCCGUUGAAUGGAGUUUAUCAUG [C93G A107G], the “polymerase ribozyme fitness (log ratio)” value is at most -4.2.
Turning to GGAUCUUCUCGAUCUAACAAAAAAGACAAAUCUGCCACAAAGCUUGAGAGCAUCUUCGGAUGCAGAGGCGGCAGCCUUCGGUGGCGCGAUAGAGCCAACGUUCUCAACUAUGACACGCAAAACGCGUGCACCGUUGAAUGGAGUUUAUCAUG [C93A U130A], the “polymerase ribozyme fitness (log ratio)” value was at most -4.2.
On to GGAUCUUCUCGAUCUAACAAAAAAGACAAAUCUGCCACAAAGCUUGAGAGCAUCUUCGGAUGCAGAGGCGGCAGCCUUCGGUGGCGCGAUAGAGCCAACGUUCUCAACUAUGACACGCAAAACGCGUGCUCCGUUGAAUGGAGUUUAGCAUG [C93A U148G], for which the “polymerase ribozyme fitness (log ratio)” value was at most -4.2.
In the case of GGAUCUUCUCGAUCUAACAAAAAAGACAAAUCUGCCACAAAGCUUGAGAGCAUCUUCGGAUGCAGAGGCGGCAGCCUUCGGUGGCGCGAUAGAGCCAACGUUCUCAACUAUGACACGCAAAACGCGUGCUCCGUGGAAUGGAGUUUAUCAUG [C93A U135G], the “polymerase ribozyme fitness (log ratio)” value is at most -4.2.
For GGAUCUUCUCGAUCUAACAAAAAAGACAAAUCUGCCACAAAGCUUGAGAGCAUCUUCGGAUGCAGAGGCGGCAGCCUUCGGUGGCGCGAUAGAGCCAACGUUCUCAACUAUGACACGCAAAACGCGUGCUCGGUUGACUUCAGUUUAUCAUG [C93A C132G A138C G140U G141C], the “polymerase ribozyme fitness (log ratio)” value is at most -4.2.
